# From paper PMC4336329 (PLoS ONE, 2015)
# In all, about 310,000 compounds went through this assay and about 2,200 (0.71%) showed an effect of 50% or more. Effects have a minus sign here. The list shows a part of the results.
# Target: human ether-à-go-go-related gene (hERG) potassium channel (human, UniProt Q12809)
# Experiment: primary screen, population patch clamp on CHO cells stably expressing hERG
# human ether-à-go-go-related gene (hERG) potassium channel, sequence (Q12809 whole entry, looked up): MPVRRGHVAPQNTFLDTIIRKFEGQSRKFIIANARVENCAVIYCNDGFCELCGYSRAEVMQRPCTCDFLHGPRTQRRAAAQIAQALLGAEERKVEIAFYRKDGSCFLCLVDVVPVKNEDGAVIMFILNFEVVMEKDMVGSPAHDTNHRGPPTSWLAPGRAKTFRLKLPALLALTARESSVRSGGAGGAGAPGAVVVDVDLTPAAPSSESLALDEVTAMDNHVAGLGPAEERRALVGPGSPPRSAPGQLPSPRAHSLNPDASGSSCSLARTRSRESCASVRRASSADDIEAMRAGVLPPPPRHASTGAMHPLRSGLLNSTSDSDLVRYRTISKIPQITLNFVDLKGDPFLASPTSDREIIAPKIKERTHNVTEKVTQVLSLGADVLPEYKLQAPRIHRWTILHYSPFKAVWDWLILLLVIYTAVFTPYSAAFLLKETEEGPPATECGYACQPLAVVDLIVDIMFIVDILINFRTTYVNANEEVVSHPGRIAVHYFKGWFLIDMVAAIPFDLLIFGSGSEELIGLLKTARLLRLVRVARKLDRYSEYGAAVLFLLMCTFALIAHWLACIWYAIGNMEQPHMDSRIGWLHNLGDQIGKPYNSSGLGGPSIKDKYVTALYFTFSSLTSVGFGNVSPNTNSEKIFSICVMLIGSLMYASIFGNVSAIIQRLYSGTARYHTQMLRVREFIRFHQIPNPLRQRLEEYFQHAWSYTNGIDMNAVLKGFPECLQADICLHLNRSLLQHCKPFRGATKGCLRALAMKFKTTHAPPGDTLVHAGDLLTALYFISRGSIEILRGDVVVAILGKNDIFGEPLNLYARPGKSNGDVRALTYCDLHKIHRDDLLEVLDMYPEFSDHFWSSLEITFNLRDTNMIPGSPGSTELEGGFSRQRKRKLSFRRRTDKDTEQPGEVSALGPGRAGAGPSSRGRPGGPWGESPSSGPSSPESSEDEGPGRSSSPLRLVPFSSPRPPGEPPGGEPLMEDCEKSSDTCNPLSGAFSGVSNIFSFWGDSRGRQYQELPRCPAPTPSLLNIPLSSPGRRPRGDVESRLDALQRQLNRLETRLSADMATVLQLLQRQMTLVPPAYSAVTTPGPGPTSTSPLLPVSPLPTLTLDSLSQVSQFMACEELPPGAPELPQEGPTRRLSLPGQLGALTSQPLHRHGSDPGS
row,SMILES,"hERG current change (%, negative = inhibition) at 1uM [%]"
1,COc1ccc(S(=O)(=O)N2CCC(C(=O)NC3CC3)CC2)cc1,1.71
2,Cc1ccc(C(=O)OCC(=O)Nc2ccccc2)cc1S(=O)(=O)N1CCCCC1,14.9
3,COCCCN(C(C)=O)c1nc(-c2ccc(OC)cc2)cs1,-2.34
4,CCn1c(=O)n(CC)c2cc(S(=O)(=O)N3CCCCC3)c(C)cc21,6.51
5,N#CC(=C=[N-])c1nc2ccccc2nc1-[n+]1cccc(NC(=O)c2ccc(F)cc2)c1,15.7
6,Clc1ccc2oc(SCc3cccnc3)nc2c1,12.7
7,COc1cccc(NC(=O)C(NCC(C)(C)CN(C)C)c2ccccc2)c1.O=C(O)C(=O)O (centres unmarked),-12.7
8,Cc1ccc(C(=O)N2CCN(c3ccccn3)CC2)cc1C,2.78
9,O=C(O)C1C2CCC(O2)C1C(=O)Nc1ccc(Br)cc1F (centres unmarked),13.5
10,CC(=O)Nc1ccc(S(=O)(=O)N2CN(c3ccc(C)cc3)c3nc4ccccc4nc32)cc1,15.2
11,Cc1ccc(S(=O)(=O)N(C)CC(O)Cn2c3ccccc3c3ccccc32)cc1 (centres unmarked),12.9
12,CCc1ccc(N2CSC3=C(C#N)C(c4cccs4)CC(=O)N3C2)cc1 (centres unmarked),5.06
13,C=CCn1cc(-c2ccc(Cl)cc2)cc(C#N)c1=O,11.1
14,CCS(=O)(=O)N1CCN(S(=O)(=O)c2ccc(F)cc2)CC1,1.1
15,CCN(CC(=O)NCc1cccs1)C(=O)COc1cccc(C(F)(F)F)c1,-7.5
16,O=C(COc1ccc(/C=N/NC(=O)c2ccncc2)cc1)Nc1ccc([N+](=O)[O-])cc1,-2.23
17,CN(CC(=O)Nc1ccccc1Cl)C(=O)c1ccc(-c2cccc(C(F)(F)F)c2)o1,6.73
18,COc1ccc(C2C(C#N)=C(N)N(N(C)C)C3=C2C(=O)CC(C)(C)C3)cc1OC (centres unmarked),6.85
19,COc1ccccc1C(=O)NC(=S)Nc1ccccc1N1CCCC1,9.11
20,CCC(=O)N1N=C2C3CCN(CC3)C2C1c1ccc(C)cc1 (centres unmarked),12.1
21,COc1cccc(C(=O)N/N=C/c2ccc(Oc3ccc([N+](=O)[O-])cn3)c(OC)c2)c1,2.86
22,Cc1ccc(-c2nn(-c3ccccc3)cc2/C=N/NS(=O)(=O)c2ccccc2)cc1,11.4

row,SMILES,"hERG current change (%, negative = inhibition) at 1uM [%]"
1,CCCCSc1nc(C)cc(SCC(=O)N/N=C/c2cccc(OC)c2O)n1,4.3
2,CCn1c(=O)c2c(O)cc(=O)oc2c2ccccc21,17.1
3,COc1ccc(OC)c(N(CC(=O)N2CCCC2)S(=O)(=O)c2ccc(C)cc2)c1,16.4
4,Cc1nc(Nc2ccc3c(c2)OCCO3)c2c(C)c(C)sc2n1,-8.61
5,COc1cc(NC(=O)Cc2cccs2)ccc1-n1cnnn1,15.8
6,O=C(CNCc1cccc(Cl)c1)N1CCc2ccccc2C1,10.3
7,Cc1cc(-c2ccco2)n(CC(=O)O)n1,6.85
8,Nc1ccc(C(=O)N/N=C/c2c[nH]c3ccccc23)cc1,6.84
9,COCCNC(=O)c1ccccc1NC(=O)CN(c1ccc2c(c1)OCO2)S(C)(=O)=O,-3.04
10,CC(=O)Nc1ccc(S(=O)(=O)N2CCN(c3cccc(C)c3C)CC2)cc1,11.2
11,CCOC(=O)C1(Cc2cccc(Cl)c2)CCCN(C(=O)c2cc(CC)on2)C1 (centres unmarked),18.6
12,COc1cccc(NC(=O)c2cc(-c3ccc(C)o3)nc3ccccc23)c1,10.1
13,Cc1nc([N+](=O)[O-])c(Br)n1CC(=O)c1ccc(Br)cc1,-6.05
14,Cc1ccc(C(=O)N2N=C(CC(C)C)CC2(O)C(F)(F)F)o1 (centres unmarked),11.4
15,Cc1nn2cc(-c3ncc(C(F)(F)F)cc3Cl)cnc2c1Br,9.57
16,Fc1ccccc1/C=C1\CCCC2=C1Nc1nnnn1C2c1ccccc1F (centres unmarked),4.87
17,CC(=O)Nc1cccc(-c2nnc(-c3ccccc3)o2)c1,4.2
18,COc1ccc(NC(=O)C(CCS(C)(=O)=O)N2C(=O)c3ccccc3C2=O)cc1 (centres unmarked),-17.8
19,Cn1c(CCNC(=O)c2ccccc2)nc2cc(NC(=O)C3CCCCC3)ccc21,0.73
20,CCOC(=O)c1ccccc1NC(=O)c1c(N)n(C)c(=O)[nH]c1=O,11.6
21,O=C(Nc1cc(Cl)cc(Cl)c1)c1cnn2cccnc12,16.2
22,COc1ccc(CC(=O)NCc2nnc(SCC(=O)c3ccc(OC)cc3)n2C)cc1,5
